# The campaign covered roughly 360,000 compounds. About 7,500 (2.1%) were called active. Inconclusive results (about 20%) are left out. Calls come from the whole dose curve; as a rule, active = well fitted inhibition curve with a large enough effect; inconclusive = small, poorly fitted or top-dose-only effect, or effect the other way; inactive = flat fitted curve, though single readings scatter. The entries are a selection whose mix differs from that of the whole data set.
# Assay: Nrf2 qHTS screen for inhibitors; note: nearly all actives have a fitted effect of over 60% in size
# Conditions: A549 ARE-Fluc reporter, luciferase luminescence, 18-24 h; series mostly up to 46 µM; activity change, negative = inhibition: at the top concentration
# In short: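 Nrf2 activity is the BugLite luminescence, read 15 min after reagent at room temperature, following CellTiter-Fluor cytotoxicity readout (30 min, 37C). Compound titrations were applied for 18-24 h to 5000 A549 ARE_Fluc cells/well in 5% FBS OPTI-MEM.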
# % is set by controls: 0 for no effect and ±100 for the full control effect; potency is the fitted concentration of half-maximal effect.
Structure (SMILES),"activity change, negative = inhibition",Potency
COc1cc(O)c(C(CC(=O)N2CCN(c3ccccc3)CC2)c2ccc(N(C)C)cc2)c(OC)c1 (stereo not given),inactive: -5.22%,–
O=C(Nc1cccc(-c2nnc(-c3ccccc3)o2)c1)c1ccc(Br)o1,–,active: 23.1 µM
COc1ccc(NC(=O)CN(C)S(=O)(=O)c2cnc[nH]2)cc1Cl,inactive: 9.53%,–
O=C(O)c1ccc(NC(=O)c2cn(-c3ccccc3)nc2-c2ccc(Br)cc2)cc1,inactive: -18.5%,–
C[C@H]1CCC[C@@]2(O[C@@H](CCO)C[C@@H](O)[C@@H]2O)O1,inactive: -10.8%,–
Nc1nncn1C(=O)c1ccc(Cl)cc1Cl,–,active: 1.64 µM
O=C1c2ccccc2NC(c2cccc(O)c2)N1Cc1ccco1 (stereo not given),inactive: 0.957%,–
O=C(Cn1cnc(S(=O)(=O)N2CCCC2)c1)Nc1ccccc1,inactive: 16.7%,–
CCC(C)NC(=O)c1cn(CC)c2ccc(S(=O)(=O)N3CCCCC3)cc2c1=O (stereo not given),inactive: 6.4%,–
Cc1cccn2c(=O)c3cc(C#N)c(=NC(=O)c4ccccc4)n(Cc4ccco4)c3nc12,inactive: -26.2%,–
CC(=O)OC(COc1ccccc1)Cn1cnc2cc(C)c(C)cc21 (stereo not given),inactive: -29.6%,–
CC(C)N(Cc1ccccc1)C(=O)CN1C(=O)COc2ccc(S(=O)(=O)NC3CCCC3)cc21,inactive: 1.61%,–
O=S1(=O)Nc2c(ccc3cccnc23)-c2ccccc21,inactive: -24.2%,–
COc1ccc(CNC(=O)c2nnn(CC(=O)Nc3cc(C)cc(C)c3)c2N)cc1,inactive: 2.91%,–
COc1ccc(NC(=O)/C(C#N)=C/c2cc(C)n(-c3ccc(N4CCOCC4)c([N+](=O)[O-])c3)c2C)cc1,–,active: 6.51 µM
CC(=O)Nc1ccc(S(=O)(=O)Nc2ccc3nc(C)sc3c2)cc1,–,active: 16.4 µM
CCCNC(=O)c1cc(S(=O)(=O)N2CCc3ccccc32)cn1C,–,active: 11.6 µM
CCOC(=O)[C@H](CCc1ccccc1)N[C@@H](C)C(=O)N1CCC[C@H]1C(=O)O,inactive: -12.3%,–
O=C1CCc2cc(S(=O)(=O)Nc3ccc(F)cc3)ccc2N1,inactive: 3.15%,–
CCOC(=O)C1CCCN(C(=O)c2ccc3c(c2)N(Cc2ccccc2)C(=O)c2ccccc2S3=O)C1 (stereo not given),inactive: 7.28%,–
O=C(CCCN1C(=O)/C(=C/c2ccccc2Cl)SC1=S)NNC(=O)c1ccc(Cl)cc1Cl,–,active: 6.51 µM
Cc1ccc[n+](CC2OCc3ccccc3CO2)c1,–,active: 7.31 µM
CCOc1ccccc1NC(=O)C(CC(C)C)NC(=O)C1CCC(C)CC1 (stereo not given),inactive: 5.79% [at 9.27 µM],–

Structure (SMILES),"activity change, negative = inhibition",Potency
Cc1ccc(NC(=O)CCc2c(C)nn(-c3ccc(N4CCOCC4)nn3)c2C)c(C)c1,inactive: -7.29%,–
C[C@]12CC[C@@H]3c4ccc(O)cc4CC[C@H]3[C@@H]1C[C@@H](O)[C@@H]2O,inactive: -9.28%,–
C=CCC[C@H](Cc1ccc(F)cc1)C(=O)OC[C@@H](C)NC(=O)[C@@H](CC=C)CC(=O)N[C@@H](CO)Cc1ccccc1,inactive: -9.12%,–
O=C(Nc1ccc(Br)cc1)c1cccc(S(=O)(=O)Nc2ccccn2)c1,–,active: 13 µM
COc1ccc(OCc2nc3ccccc3n2C(C)C)cc1,–,active: 23.1 µM
Cn1nnnc1Sc1ncnc2scc(-c3ccccc3)c12,inactive: -5.74%,–
COc1ccc(NC(=O)c2ccco2)cc1NC(=O)c1ccc(C#N)cc1F,inactive: -0.257%,–
CC(C)(C)OC(=O)C[C@@H]1C/C=C\C[C@@H](CC(=O)N(CCO)Cc2ccccc2)C(=O)NC[C@@H](c2ccccc2)OC1=O,inactive: -3.95%,–
COC(=O)N1C(=O)[C@](c2ccc(OC)cc2)(C(C)C)N1C(=O)OC,inactive: -7.33%,–
Cc1ccc(NC(=O)c2ccc3snnc3c2)cc1C,inactive: 19%,–
Cc1ccc(C)c(N2CCN(C(=O)CCCOc3cc(=O)n(C)c4ccccc34)CC2)c1,–,active: 23.1 µM
COc1ccc(-c2ccc(C)cc2)cc1C1C2C=CCCC2(C)C(=O)N1Cc1ccccc1 (stereo not given),inactive: -24.5%,–
CCN(C(=O)CN1C(=O)COc2ccc(S(=O)(=O)N3CCOCC3)cc21)c1ccc(OC)cc1,inactive: 0%,–
Cc1ccc(C(=O)C2CCN(C(=O)c3ccc(C)cc3)CC2)cc1,–,active: 23.1 µM
Cc1cc(Cl)c(S(=O)(=O)NC2CCCC2)cc1OCC(=O)NC1CCCCC1,–,active: 6.51 µM
CC(=O)/C(=C\N(C)C)Sc1ccc(C)cc1,inactive: 4.2%,–
CCOC(=O)[C@@H]1[C@H]2COc3cc(OC)ccc3[C@@H]2N2C(=O)N(c3ccc(C(F)(F)F)cc3)C(=O)[C@]12C,inactive: 29.9%,–
Cc1c(C(=O)N2CCN(c3ccccc3)CC2)sc2nc3n(c(=O)c12)CCC3,inactive: -20.5%,–
Cc1ccc(NC(=O)CSc2nc3ccccc3nc2N2CCOCC2)cc1,inactive: -0.743%,–
CCOC(=O)c1ccc(N=c2sc(C(=O)OC)cc(=O)n2CCCN2CCOCC2)cc1,inactive: 4.53%,–
O=C(CSc1nc2nn(-c3ccccc3)c(=O)c-2c2n1CCCCC2)Nc1ccc(F)c(F)c1,–,active: 18.4 µM
Cc1cc2oc(=O)cc(CSc3nnc(-c4cccs4)o3)c2cc1C(C)C,–,active: 8.2 µM

# Source: PubChem BioAssay AID504444 (National Center for Advancing Translational Sciences (NCATS), 2011)
